Drawing on the RNAGym collection of RNA variant scans (doi:10.7554/elife.90254), this text covers self-cleavage for 56 variants.

The source gives no read counts; variants with many changes may rest on few reads.

To fix the notation:
B1: LINE1-mini (parent)
chain: GGCAGAGCUCAACACAGCGUGGCAAAGUGGCUGUGGCUAGACUGCC

Variants of B1 are the subject of this data set. The experiment in a line: self-cleavage, relative activity (ratio to wild type); higher = more cleavage; in vitro, sequencing; the parent is a self-cleaving ribozyme.
Take GGCAGAGCUCAACACAGCCAGGCAAAGUCGCUGUGGGUAGACUGCC [G19C U20A G29C C37G]: the self-cleavage is 0.16.

For the variant GGCAGAGCUCAACACAGCUUGGCGACGUGGCUGUGGCUAGACUGCC [G19U A24G A26C], the self-cleavage came out at 0.72.

Take GGCAGAGCUCAACACAGCAUGGCAAAGUGGCUGUGGUUAAACUGCC [G19A C37U G40A]: the self-cleavage was 0.36.

On to GGCAGAGCUCAACACAGCAUGGCAAAGUUGCUGUGGCUAGACGGCC [G19A G29U U43G], for which the self-cleavage stood at 0.

For the variant GGCAGAGCUCAACACAGCCUGGCAAAGGGGGUGUGGCUAGACUGCC [G19C U28G C31G], the self-cleavage turned out to be 0.17.

As to GGCAGAGCUCAACACAGCAUGGCAAAGUGACUGCGCCUAGACUGCC [G19A G30A U34C G36C], the self-cleavage came to 0.07.

For the variant GGCAGAGCUCAACACAGCCUGGCAAAGUUGCUAUGGCUAGACUGCC [G19C G29U G33A], the self-cleavage was found to be 0.03.

In the case of GGCAGAGCUCAACACAGCCUGGCAAAGUGGCUGUGGGUAGACUUCC [G19C C37G G44U], the self-cleavage worked out at 0.01.

For GGCAGAGCUCAACACAGCCUGGCAAAGGGGCCGUGGCUAGACUGCC [G19C U28G U32C], the self-cleavage came to 0.27.

On to GGCAGAGCUCAACACAGCAUAGCACCGUGGCUGUGGCUAGUCUGAC [G19A G21A A25C A26C A41U C45A], for which the self-cleavage was found to be 0.11.

On to GGCAGAGCUCAACACAGCCUGGCAUAGUGACUGUGGCUAGAGUGCC [G19C A25U G30A C42G], for which the self-cleavage stood at 0.05.

Consider GGCAGAGCUCAACACAGCUUGGCAUAGUGGGUGAGGCUAUCCUGCC [G19U A25U C31G U34A G40U A41C], for which the self-cleavage came to 0.

As for GGCAGAGCUCAACACAGCCUGGUAAAGUGGCUGUGGCUAGACAGCC [G19C C23U U43A], the self-cleavage came to 0.

With GGCAGAGCUCAACACAGCCUGGCAAAGUGGCUGUGCCUUGACUGCC [G19C G36C A39U], the self-cleavage was determined as 0.02.

Turning to GGCAGAGCUCAACACAGCAUGGCAAAGUGGCACUGGCUAGACUGCC [G19A U32A G33C], the self-cleavage came to 0.03.

Regarding GGCAGAGCUCAACACAGCUUGGCAACGUGGCUGUGGUUAGAGUGCC [G19U A26C C37U C42G], the self-cleavage amounted to 0.02.

For the variant GGCAGAGCUCAACACAGCCUGGUAAAGUGGAUGUGGAUAGACUGCA [G19C C23U C31A C37A C46A], the self-cleavage was found to be 0.02.

In the case of GGCAGAGCUCAACACAGCUUGGCGAAGUGGGUGUGGCUAGACUGCC [G19U A24G C31G], the self-cleavage was 0.1.

GGCAGAGCUCAACACAGCUUGGCAGAGUGGCUGUGGCUAGACUGCA [G19U A25G C46A]: the self-cleavage stood at 0.55.

As for GGCAGAGCUCAACACAGCCUGGAAUAGUGGCUGUGGCUAGACUGCC [G19C C23A A25U], the self-cleavage amounted to 0.1.

On to GGCAGAGCUCAACACAGCACGGCAAAGUGGCUGUGGGUAGACUGCC [G19A U20C C37G], for which the self-cleavage was found to be 0.36.

As to GGCAGAGCUCAACACAGCAUGGCAAAGUAGCUGGGGCUACACAGCC [G19A G29A U34G G40C U43A], the self-cleavage turned out to be 0.03.

With GGCAGAGCUCAACACAGCCUGGCAAAAUGUCUGGGGCUAGACUGCC [G19C G27A G30U U34G], the self-cleavage was 0.05.

As to GGCAGAGCUCAACACAGCCAGGCAAAGUGGCUGUUACUAGACUGCC [G19C U20A G35U G36A], the self-cleavage is 0.04.

As to GGCAGAGCUCAACACAGCCUGACAAAGUGGCUGUGGCUAGACUACC [G19C G22A G44A], the self-cleavage was determined as 0.14.

As for GGCAGAGCUCAACACAGCCUGGCAAAGCGGCUGUGGCUAGAUUGCC [G19C U28C C42U], the self-cleavage was 1.49.

Consider GGCAGAGCUCAACACAGCUUGGCAAGGUGGCUGGGGCUAGACUUCC [G19U A26G U34G G44U], for which the self-cleavage turned out to be 0.06.

GGCAGAGCUCAACACAGCCUGGCUAAGUGGCGGUGGCUAGACUGAC [G19C A24U U32G C45A]: the self-cleavage stood at 0.12.

Take GGCAGAGCUCAACACAGCCUGGCAAAGUGUCUGUGGCUAGACUGUC [G19C G30U C45U]: the self-cleavage was 0.12.

GGCAGAGCUCAACACAGCCUGGCACAGUGUCUGUGGCUAGACUGCC [G19C A25C G30U]: the self-cleavage was 0.48.

With GGCAGAGCUCAACACAGCCUGGCAAAGUCGCUCUUGCUAGACUGCC [G19C G29C G33C G35U], the self-cleavage is 0.03.

On to GGCAGAGCUCAACACAGCAUUGCAAAGUGGCUGUGGUUAGACUGCC [G19A G21U C37U], for which the self-cleavage amounted to 0.19.

Turning to GGCAGAGCUCAACACAGCCUGGCAGAGUAUCUGUGGCUAGACUGCC [G19C A25G G29A G30U], the self-cleavage came to 0.31.

Take GGCAGAGCUCAACACAGCAUGGCAAAGUCGGUGUGGCAAGUCUGCC [G19A G29C C31G U38A A41U]: the self-cleavage was determined as 0.06.

As for GGCAGAGCUCAACACAGCCUGGCAAAGUGGCUGUAGCUAGAGUGCC [G19C G35A C42G], the self-cleavage worked out at 0.07.

With GGCAGAGCUCAACACAGCAUGGCAAAUUGGCUGGGGCUAGACAGCC [G19A G27U U34G U43A], the self-cleavage came out at 0.01.

Turning to GGCAGAGCUCAACACAGCCUGGCAAAGUGGCUGUAGCCACACUGCC [G19C G35A U38C G40C], the self-cleavage was 0.02.

Consider GGCAGAGCUCAACACAGCCUGGCAAAAUGGCUGUGGCUAGACUUCC [G19C G27A G44U], for which the self-cleavage stood at 0.26.

For GGCAGAGCUCAACACAGCUUGGCAGAGGGGCUGUGGCUAGAAUGCC [G19U A25G U28G C42A], the self-cleavage amounted to 0.05.

Consider GGCAGAGCUCAACACAGCAUGUCAACGUGGCUGUGGCUGGACUGCC [G19A G22U A26C A39G], for which the self-cleavage amounted to 0.09.

Turning to GGCAGAGCUCAACACAGCCUGGCAAAAUCGCUGUGGCUAGACUGCC [G19C G27A G29C], the self-cleavage is 0.25.

GGCAGAGCUCAACACAGCCUGGCAUAGUAGCGGUGGCUAGACUGCA [G19C A25U G29A U32G C46A]: the self-cleavage came to 0.22.

For GGCAGAGCUCAACACAGCAUGGCAAAGAGGCUGUGGCGAGACUGCC [G19A U28A U38G], the self-cleavage worked out at 0.02.

As for GGCAGAGCUCAACACAGCAUGGCAAACUGGCUGUGGGUAGCCUGCC [G19A G27C C37G A41C], the self-cleavage was 0.03.

On to GGCAGAGCUCAACACAGCAUGGCAAAGUGGCUGCGGCUAGAGUGCC [G19A U34C C42G], for which the self-cleavage is 0.05.

Regarding GGCAGAGCUCAACACAGCAUGGCAAAGUGGCUGCGGCUAGAUUGCC [G19A U34C C42U], the self-cleavage stood at 0.05.

As to GGCAGAGCUCAACACAGCACGGCAAAGUGGCUGUGGCCAGACUGUC [G19A U20C U38C C45U], the self-cleavage was 0.75.

With GGCAGAGCUCAACACAGCCUAGAAAUGUGGCUGUGGCUAGACUGCC [G19C G21A C23A A26U], the self-cleavage was found to be 0.31.

Regarding GGCAGAGCUCAACACAGCAUAGCAAUGUGGCUGUGGCUAAACUGCC [G19A G21A A26U G40A], the self-cleavage came out at 0.04.

In the case of GGCAGAGCUCAACACAGCAUGGCAAAGAGGCUUUGGCUAGACUGCC [G19A U28A G33U], the self-cleavage was found to be 0.11.

As to GGCAGAGCUCAACACAGCAAGGCAAAGUGGCGGUAGUCAGACUGCA [G19A U20A U32G G35A C37U U38C C46A], the self-cleavage was 0.06.

In the case of GGCAGAGCUCAACACAGCAUGACAAAGUGGCUGUGACUAGACUGCC [G19A G22A G36A], the self-cleavage was found to be 0.06.

On to GGCAGAGCUCAACACAGCUUGGCAUAGUGUCUGUGGCUAGACUGCC [G19U A25U G30U], for which the self-cleavage amounted to 0.2.

Regarding GGCAGAGCUCAACACAGCCUGGCAAAGUGGAUGUGGCUAGACUGCU [G19C C31A C46U], the self-cleavage was found to be 0.91.

In the case of GGCAGAGCUCAACACAGCAUGACAAAGUGGAUCUGGCUAGACUGCC [G19A G22A C31A G33C], the self-cleavage stood at 0.02.

For the variant GGCAGAGCUCAACACAGCAUGGCAAAGUGGCUGCGGCUAGACUGUC [G19A U34C C45U], the self-cleavage was found to be 0.43.
